Laboratory results reported in patent US20080280910A1, “PHTHALAZINONE DERIVATIVES” (priority 2007, published 2008).

What follows are compounds tested against Mammalian PARP, isolated from Hela cell nuclear extract (Homo sapiens, UniProt P09874) (assay: PARP inhibition assay (FlashPlate, 3H-NAD incorporation) to determine IC50). Details: mean IC50.
Type: biochemical
Experimental: In order to assess the inhibitory action of the compounds, the following assay was used to determine IC50 values (Dillon, et al., JBS., 8(3), 347-352 (2003)).
All compounds were diluted in DMSO and gave final assay concentrations of between 10 and 0.01 μM, with the DMSO being at a final concentration of 1% per well. The total assay volume per well was 40 μL.
After 10 minutes incubation at 30° C. the reactions were initiated by the addition of a 10 μl reaction mixture, containing NAD (5 μM), ^3H-NAD and 30mer double stranded DNA-oligos. Designated positive and negative reaction wells were done in combination with compound wells (unknowns) in order to calculate % enzyme activities. The plates were then shaken for 2 minutes and incubated at 30° C. for 45 minutes.
Following the incubation, the reactions were quenched by the addition of 50 μl 30% acetic acid to each well. The plates were then shaken for 1 hour at room temperature.
The plates were transferred to a TopCount NXT (TRADE MARK) (Packard, UK) for scintillation counting. Values recorded are counts per minute (cpm) following a 30 second counting of each well.
The % enzyme activity for each compound is then calculated using the following equation: […]
IC50 values (the concentration at which 50% of the enzyme activity is inhibited) were calculated, which are determined over a range of different concentrations, normally from 10 μM down to 0.001 μM. Such IC50 values are used as comparative values to identify increased compound potencies.

IC50	SMILES
61 nM	COc1cccc(-c2cc(Cc3n[nH]c(=O)c4ccccc34)ccc2F)c1 [Compound 91]
316 nM	O=c1[nH]nc(Cc2ccc(F)c(-c3cccc(Cl)c3)c2)c2ccccc12 [Compound 83]
174 nM	Nc1cccc(-c2cncc(Cc3n[nH]c(=O)c4ccccc34)c2)c1 [Compound 109]
54 nM	O=C(Cc1ccccc1)Nc1ccc(-c2cc(Cc3n[nH]c(=O)c4ccccc34)ccc2F)cc1 [Compound 185]
10 nM	O=c1[nH]nc(Cc2ccc(F)c(-c3ccc(NS(=O)(=O)c4cccc5nonc45)cc3)c2)c2ccccc12 [Compound 207]
71 nM	O=c1[nH]nc(Cc2ccc(F)c(-c3cccc(NS(=O)(=O)c4ccc(F)cc4)c3)c2)c2ccccc12 [Compound 150]
9 nM	O=C(Nc1cccc(-c2cc(Cc3n[nH]c(=O)c4ccccc34)ccc2F)c1)Nc1ccccc1F [Compound 160]
2.3 nM	O=c1[nH]nc(Cc2ccc(F)c(-c3ccc(NS(=O)(=O)CC4CCOCC4)cc3)c2)c2c1CCCC2 [Compound 260]
39 nM	O=c1[nH]nc(Cc2cccc(-c3ccco3)c2)c2ccccc12 [Compound 28]
171 nM	O=C(Nc1ccc(-c2cc(Cc3n[nH]c(=O)c4ccccc34)ccc2F)cc1)c1ccccc1 [Compound 179]
43 nM	Nc1ccc(-c2cc(Cc3n[nH]c(=O)c4c3CCCC4)ccc2F)cc1 [Compound 256, 4-(4′-Amino-6-fluoro-biphenyl-3-ylmethyl)-5,6,7,8-tetrahydro-2H-phthalazin-1-one]
788 nM	O=C(NCc1ccco1)c1cccc(-c2ccc(Cc3n[nH]c(=O)c4ccccc34)cc2)c1 [Compound 173]
105 nM	O=c1[nH]nc(Cc2cccc(-c3ccsc3)c2)c2ccccc12 [Compound 24]
1180 nM	O=C(O)c1cccc(-c2ccc(Cc3n[nH]c(=O)c4ccccc34)cc2)c1 [Compound 166]
149 nM	CSc1ccc(-c2cc(Cc3n[nH]c(=O)c4ccccc34)ccc2F)cc1 [Compound 79]
76 nM	O=c1[nH]nc(Cc2ccc(F)c(-c3cccc(NS(=O)(=O)c4ccc(Cl)cc4)c3)c2)c2ccccc12 [Compound 148]
190 nM	Cc1cccc(CCC(=O)Nc2ccc(-c3cc(Cc4n[nH]c(=O)c5ccccc45)ccc3F)cc2)c1 [Compound 194]
1210 nM	COCCN1CCN(C(=O)c2ccc(-c3cc(Cc4n[nH]c(=O)c5ccccc45)ccc3F)cc2)CC1 [Compound 216]
839 nM	O=C(c1ccc(-c2cc(Cc3n[nH]c(=O)c4ccccc34)ccc2F)cc1)N1CCN(CCO)CC1 [Compound 217]
23 nM	O=c1[nH]nc(Cc2ccc(F)c(-c3ccc(NS(=O)(=O)c4ccccc4)cc3)c2)c2ccccc12 [Compound 202]
35 nM	COCCN1CCN(Cc2ccc(-c3cc(Cc4n[nH]c(=O)c5ccccc45)ccc3F)o2)CC1 [Compound 238]
57 nM	O=C(Nc1ccc(-c2cc(Cc3n[nH]c(=O)c4ccccc34)ccc2F)cc1)C1CC1 [Compound 175]
287 nM	NC(=O)c1cccc(-c2cc(Cc3n[nH]c(=O)c4ccccc34)ccc2F)c1 [Compound 74]
28 nM	O=c1[nH]nc(Cc2ccc(F)c(-c3ccc(CNCc4ccccc4)o3)c2)c2ccccc12 [Compound 232]
124 nM	CC(C)N1CCN(Cc2ccc(-c3cc(Cc4n[nH]c(=O)c5ccccc45)ccc3F)o2)CC1 [Compound 241]
3.1 nM	O=c1[nH]nc(Cc2ccc(F)c(-c3ccc(NS(=O)(=O)CC4CC4)cc3)c2)c2c1CCCC2 [Compound 263]
1520 nM	Nc1cccc(-c2ccc(Cc3n[nH]c(=O)c4ccccc34)cc2)c1 [Compound 165]
112 nM	O=C(Nc1ccc(-c2cc(Cc3n[nH]c(=O)c4ccccc34)ccc2F)cc1)Nc1ccc2c(c1)OCCO2 [Compound 200]
81 nM	O=C(Nc1cccc(-c2cc(Cc3n[nH]c(=O)c4ccccc34)ccc2F)c1)C1CCc2ccccc2O1 (stereo not drawn) [Compound 146]
65 nM	CN1CCC(C(=O)Nc2cccc(-c3cc(Cc4n[nH]c(=O)c5ccccc45)ccc3F)c2)CC1 [Compound 140]
